From the antibiotic and cytotoxicity screens of Wong et al. (2023)
The list shows a part of the results.

Tests used:
[1] = tested on: HSkMC (human skeletal muscle cells); test: cytotoxicity call (relative viability < 0.9); details: 10 µM
[2] = tested on: HepG2; test: cytotoxicity call (relative viability < 0.9); details: 10 µM
[3] = tested on: S. aureus RN4220; test: growth inhibition call (relative growth <= 0.2); details: 50 µM

| Compound | cytotoxicity call [1] | cytotoxicity call [2] | growth inhibition call [3] |
| --- | --- | --- | --- |
| O=C(CCCCCCC(=O)N/N=C/[C@H](O)[C@@H](O)[C@@H](O)[C@H](O)CO)NO | inactive | inactive | inactive |
| C[C@@H]1CCCCO[C@@H](CN(C)C(=O)c2ccccc2)[C@H](C)CN([C@@H](C)CO)C(=O)c2cc(NS(=O)(=O)c3cccs3)ccc2O1 | inactive | inactive | inactive |
| COc1ccc(cc1)CN1CC[C@]2(CC1)CN([C@@H](CO)c1[nH]c3cc(ccc3c12)OC)C(=O)Nc1ccc(cc1)F | inactive | active | inactive |
| C[C@@H]1CN([C@H](C)CO)C(=O)c2cccc(NC(=O)c3ccc(-c4nccs4)cc3)c2O[C@H]1CN(C)C(=O)Nc1ccc(C(F)(F)F)cc1 | inactive | inactive | inactive |
| CC(C)NC(=O)Nc1ccc2c(c1)C(=O)N([C@@H](C)CO)C[C@H](C)[C@H](CN(C)Cc1ccc(C(F)(F)F)cc1)OCCCC[C@@H](C)O2 | inactive | active | inactive |
| C[C@H]1CN([C@@H](C)CO)C(=O)c2cc(NC(=O)Nc3cccc4ccccc34)ccc2O[C@@H]1CN(C)S(=O)(=O)c1ccccc1 | inactive | inactive | inactive |
| C[C@@H]1CN([C@H](C)CO)C(=O)c2cccc(NC(=O)C3CCOCC3)c2O[C@H]1CN(C)Cc1ccc(Oc2ccccc2)cc1 | inactive | inactive | inactive |
| C[C@@H]1CCCCO[C@@H](CN(C)S(=O)(=O)c2ccc(Cl)cc2)[C@@H](C)CN([C@H](C)CO)C(=O)c2cc(NS(=O)(=O)c3cccs3)ccc2O1 | inactive | inactive | inactive |
| O=C(CS)NCCCCCCNC(=O)[C@H]1C[C@H]2C(=O)NCC(=O)N2[C@H]1c1ccc(O)cc1 | inactive | inactive | inactive |
| C[C@H](CO)N1C[C@H](C)[C@H](CN(C)C(=O)C2CCCCC2)Oc2ncc(C#CC3(O)CCCC3)cc2C1=O | inactive | inactive | inactive |
| CC(C)NC(=O)N1Cc2cc(C(=O)NC3Cc4ccccc4C3)nc(-c3cccc(-c4cccnc4)c3)c2[C@@H]1CCO | active | inactive | inactive |
| Cc1noc(C)c1S(=O)(=O)Nc1ccc2c(c1)C(=O)N([C@H](C)CO)C[C@H](C)[C@@H](CN(C)S(=O)(=O)c1cccs1)O2 | inactive | inactive | inactive |
| C[C@H]1CCCCO[C@H](CN(C)Cc2ccc(C(=O)O)cc2)[C@@H](C)CN([C@@H](C)CO)C(=O)c2cc(NC(=O)CCC(F)(F)F)ccc2O1 | inactive | inactive | inactive |
| CN(C)CCCNC(=O)C[C@@H]1CC[C@@H]2[C@H](COC[C@@H](O)CN2S(=O)(=O)c2ccc(F)cc2)O1 | inactive | inactive | inactive |
| COc1ccc(S(=O)(=O)N(C)C[C@@H]2Oc3c(NS(C)(=O)=O)cccc3C(=O)N([C@H](C)CO)C[C@@H]2C)cc1 | inactive | inactive | inactive |
| C[C@@H]1CN([C@@H](C)CO)C(=O)c2cccc(NS(C)(=O)=O)c2O[C@@H]1CN(C)Cc1ccc(C(=O)Nc2ccccc2N)cc1 | inactive | inactive | inactive |
| Cc1ccc(S[C@]2(C(=O)NC3CC3)CC(=O)N(Cc3cc(C(F)(F)F)cc(C(F)(F)F)c3)[C@@H]2c2ccc(CO)cc2)cc1 | inactive | inactive | inactive |
| O=C(C[C@@H]1C=C[C@H](NC(=O)c2ccc3c(c2)OCO3)[C@H](CO)O1)NCc1ccc(Oc2ccccc2)cc1 | inactive | inactive | inactive |
| NCc1cccc(Cn2cccn2)c1 | inactive | inactive | inactive |
| C[C@@H]1CN([C@H](C)CO)C(=O)c2cc(NC(=O)Cn3cnnn3)ccc2O[C@@H]1CN(C)C(=O)NC1CCCCC1 | inactive | inactive | inactive |
| C[C@H]1CN([C@@H](C)CO)C(=O)Cc2cc(NC(=O)CCC(F)(F)F)ccc2O[C@@H]1CN(C)Cc1ccc(C(=O)Nc2ccccc2N)cc1 | inactive | inactive | inactive |
| O=C1OCCC=C[C@H]2O[C@@]34C=CCN(Cn5nnc6ccccc65)C(=O)[C@H]3N(CCCCCO)C(=O)[C@@H]4[C@@H]12 | inactive | inactive | inactive |
| C[C@@H]1CN([C@H](C)CO)C(=O)c2cc(NS(=O)(=O)c3cccs3)ccc2O[C@@H](C)CCCCO[C@@H]1CN(C)C(=O)Cc1ccccc1 | inactive | inactive | inactive |
| COC(=O)C[C@H]1NCCNC1=O | inactive | inactive | inactive |
| COc1ccc(NC(=O)Nc2ccc3c(c2)C(=O)N([C@@H](C)CO)C[C@@H](C)[C@@H](CN(C)C(=O)Nc2ccc4c(c2)OCO4)OCCCC[C@@H](C)O3)cc1 | inactive | inactive | inactive |
| C[C@@H]1CCCCO[C@H](CN(C)C(=O)Nc2ccc(F)cc2)[C@@H](C)CN([C@H](C)CO)C(=O)c2cc(NC(=O)Cc3ccccc3)ccc2O1 | inactive | inactive | inactive |
| Oc1c(I)cc(Cl)c2cccnc12 | inactive | active | inactive |

| Compound | cytotoxicity call [1] | cytotoxicity call [2] | growth inhibition call [3] |
| --- | --- | --- | --- |
| C[C@H]1CCCCO[C@@H](CN(C)C(=O)CCC(F)(F)F)[C@@H](C)CN([C@@H](C)CO)C(=O)c2cc(NC(=O)C3CCCCC3)ccc2O1 | inactive | inactive | inactive |
| O=C(C[C@H]1CC[C@@H]2[C@H](COC[C@H](O)CN2C(=O)Nc2cc(Cl)cc(Cl)c2)O1)N1CCOCC1 | inactive | inactive | inactive |
| C[C@H](CO)N1C[C@H](C)[C@@H](CN(C)Cc2ccc(Oc3ccccc3)cc2)Oc2c(NC(=O)NC3CCCCC3)cccc2C1=O | inactive | inactive | inactive |
| CC(C)NC(=O)Nc1ccc2c(c1)CC(=O)N([C@H](C)CO)C[C@@H](C)[C@H](CN(C)Cc1ccc3c(c1)OCO3)O2 | inactive | inactive | inactive |
| C[C@@H]1CN([C@@H](C)CO)C(=O)c2cc(NC(=O)CCC(F)(F)F)ccc2O[C@@H](C)CCCCO[C@H]1CN(C)C(=O)CCC(F)(F)F | inactive | inactive | inactive |
| CC(C)NC(=O)Nc1ccc2c(c1)C(=O)N([C@@H](C)CO)C[C@@H](C)[C@@H](CN(C)S(=O)(=O)c1ccc(F)cc1)O2 | inactive | inactive | inactive |
| COc1ccc(S(=O)(=O)N(C)C[C@@H]2OCCCC[C@@H](C)Oc3ccc(NC(=O)Nc4ccc5c(c4)OCO5)cc3C(=O)N([C@@H](C)CO)C[C@H]2C)cc1 | inactive | inactive | inactive |
| COCC(=O)Nc1ccc2c(c1)C(=O)N(C)[C@@H]1CC[C@@H](CC(=O)NCc3ccc(OC)cc3)O[C@@H]1CO2 | inactive | inactive | inactive |
| CCOC(=O)c1c[nH]c(=S)[nH]c1=O | inactive | inactive | inactive |
| CCOC(=O)[C@H]1C/C=C/C[C@H](C(=O)OCC)C(=O)O[C@H]2[C@@H](OC)O[C@H](CO)[C@@H](OC(=O)Nc3ccc(Br)cc3)[C@@H]2OC1=O | active | active | inactive |
| Cc1ccc(S(=O)(=O)Nc2ccc3c(c2)C(=O)N([C@@H](C)CO)C[C@@H](C)[C@@H](CN(C)C(=O)Nc2ccccc2)OCCCC[C@@H](C)O3)cc1 | inactive | inactive | inactive |
| C[C@@H]1CN([C@@H](C)CO)C(=O)c2ccccc2-c2ccccc2CO[C@@H]1CN(C)C(=O)Nc1cccc(Cl)c1Cl | inactive | inactive | inactive |
| Cc1noc(C)c1NC(=O)Nc1ccc2c(c1)C(=O)N([C@H](C)CO)C[C@H](C)[C@@H](CN(C)Cc1ccc(C(=O)O)cc1)OCCCC[C@@H](C)O2 | inactive | inactive | inactive |
| Cc1ccc(S(=O)(=O)Nc2ccc3c(c2)C(=O)N(C)[C@@H]2CC[C@H](CC(=O)NCCc4ccncc4)O[C@@H]2CO3)cc1 | inactive | inactive | inactive |
| COc1ccc(CN(C)C[C@H]2Oc3ccc(NC(=O)Nc4ccc(C(F)(F)F)cc4)cc3C(=O)N([C@H](C)CO)C[C@H]2C)cc1 | inactive | active | inactive |
| C[C@@H]1CN([C@@H](C)CO)C(=O)CCCn2cc(nn2)CO[C@H]1CN(C)S(=O)(=O)c1cccc(C#N)c1 | inactive | inactive | inactive |
| C[C@H](CO)N1C[C@H](C)[C@@H](CN(C)C(=O)C2CCCCC2)OCCCC[C@H](C)Oc2ccc(NC(=O)Nc3ccc4c(c3)OCO4)cc2C1=O | inactive | inactive | inactive |
| CCn1cc(C(=O)O)c(=O)c2cc(F)c(N3CCNC(C)C3)c(F)c21.Cl (centres undefined) | inactive | inactive | active |
| Cc1noc(C)c1S(=O)(=O)Nc1ccc2c(c1)C(=O)N([C@H](C)CO)C[C@H](C)[C@H](CN(C)C(=O)Nc1ccc(C(F)(F)F)cc1)OCCCC[C@@H](C)O2 | inactive | inactive | inactive |
| C[C@H]1CN([C@@H](C)CO)C(=O)c2cccc(NC(=O)C3CCOCC3)c2O[C@@H]1CN(C)S(=O)(=O)c1ccccc1 | inactive | inactive | inactive |
| C[C@@H]1CCCCO[C@H](CN(C)C(=O)CCCN(C)C)[C@H](C)CN([C@H](C)CO)C(=O)c2cc(NC(=O)Nc3cccc4ccccc34)ccc2O1 | inactive | inactive | inactive |
| CCC/C=C1\OC(=O)c2ccccc21 | inactive | inactive | inactive |
| CC(C)(C)S(=O)N1Cc2cc(C(=O)NCc3ccc(Oc4ccccc4)cc3)nc(-c3cccc(C#CCC4CCCC4)c3)c2[C@@H]1CCO (some centres undefined) | active | inactive | inactive |
| CC(=O)Nc1cccc(S(N)(=O)=O)c1 | inactive | inactive | inactive |
| C[C@H]1CCCCO[C@@H](CN(C)C(=O)c2ccccc2)[C@@H](C)CN([C@@H](C)CO)C(=O)c2cc(NS(=O)(=O)c3ccc(Cl)cc3)ccc2O1 | inactive | inactive | inactive |
| OC[C@H]1O[C@@H](O[C@@H]2[C@@H](CO)O[C@](O)(CO)[C@H]2O)[C@H](O)[C@@H](O)[C@H]1O | inactive | inactive | inactive |
